Measurements: US5002959A, “BU-4146T antibiotic” (Bristol-Myers Squibb Company, priority 1989, dated 1991)

Test system: melanotic melanoma B16
Test: In vivo antitumor activity against B16 melanoma (ip)

Question: How did the “maximum T/C” value turn out when `C/C(=C\C(C)C(=O)CC(O)CC1CC(=O)NC(=O)C1)C1OC(=O)/C=C/CC/C=C/C=C\C1C` (stereo not shown) [BU-4146T] was run?
Answer: 145%
